The source of these data is US11466066B2, “Variants of human BMP7 protein” (ELI LILLY AND COMPANY, priority 2017, dated 2022).

Assay type in all cases: cell-based
Test [1] deals with growth factor established endothelial cords. Description: Established cord assay. As to conditions: 100, 50, 25, and 12.5 ng/ml; cords formed 120 hours with growth factors before treatment. An excerpt: An in vitro endothelial cord formation assay, a surrogate of angiogenesis, may be used to investigate the role of human BMP7 proteins on various growth factor established cords including, but not limited to, VEGF, basic FGF, and EGF established cords. Endothelial cord forming cells (ECFCs; passage 4-10 suitable for cord formation) may be cultured in EGM-2 MV (Lona) media containing a final concentration of 10% FBS and passaged onto type 1 collagen (fibrillar) coated flasks prior to seeding into the cord formation assay in vitro. Adipocyte derived stem cells (Zen-Bio, cells frozen at passage 4; cells at passage 5 or greater not assayed) may be cultured in EGM-2 MV (Lonza) media prior to plating at 50,000 cells per well (into 96-well black poly-D-lysine coated plates) in co-culture media [for example, MCDB-131 media (Invitrogen) supplemented with 30 μg/ml L-ascorbic acid 2-phosphate, 1 μM dexamethasone, 50 μg/ml tobramycin, 10 μg/ml insulin (all from Sigma-Aldrich), and 10 μg/ml cell prime r-transferrin AF (Millipore, Billerica, Mass.)] for 24 hours. Adipocyte derived stem cell (ADSC) media may be removed and 5,000 ECFCs (Lonza) per well may be over seeded. […]

Test [2] has as its system ADSC/ECFC co-culture stimulated with EGF. As to the kind of experiment: EGF-driven cord formation. Conditions: 100 ng/ml; 10 ng/ml EGF; 96 hours. An excerpt: An in vitro endothelial cord formation assay, a surrogate of angiogenesis, may be used to investigate the role of human BMP7 proteins on various growth factor established cords including, but not limited to, VEGF, basic FGF, and EGF established cords. Endothelial cord forming cells (ECFCs; passage 4-10 suitable for cord formation) may be cultured in EGM-2 MV (Lona) media containing a final concentration of 10% FBS and passaged onto type 1 collagen (fibrillar) coated flasks prior to seeding into the cord formation assay in vitro. […]
An ADSC/ECFC co-culture was unstimulated (basal) or stimulated with 10 ng/ml EGF and treated simultaneously with PBS or 100 ng/ml human pro-BMP7 variant F9 or 100 nM sunitinib for 96 hours prior to immunohistochemistry for CD31 (green), α-smooth muscle actin (red), and Hoechst 33342 to stain all nuclei (blue). Resulting CD31-positive endothelial cords were visualized and quantitated using high content imaging. […]

The target in a further test is T1, Follistatin (Homo sapiens, UniProt P19883).
T1 construct: made in house
Description: BMP inhibitor activity, hepcidin promoter luciferase: Follistatin. Here is the method: (§1) Briefly described, Hep3B2 cells stably transfected with a hepcidin promoter luciferase construct (hereinafter, referred to as Hep3B2_HepPro_luc cells) were used for BMP inhibitor experiments. Hep3B2_HepPro_luc cells may be plated at 30,000 cells per well in a tissue culture treated 96 well plate in DMEM (Hyclone) 5% FBS (Gibco) supplemented with non-essential amino acids (Hyclone) and 200 μg/ml gentecin (Hyclone) for 24 hours. Cells were then starved in OMEM+0.2% BSA for 5 hours. Cells were treated with a mixture of human BMP7 proteins and variants thereof in OMEM (Gibco)+0.2% BSA (Gibco) for 18 hours then developed for luciferase activity utilizing Luciferase reporter Gene Assay Kit (Roche). BMP7 proteins were added at concentrations in the linear range of the assay, at 1 nM and 100 pM. Inhibitors were added at various concentrations in molar excess of the particular BMP7 protein being tested. All BMP inhibitors except Follistatin were purchased from R&D Systems. Follistatin and BMP7 proteins and variants thereof were generated at Eli Lilly and Company.

Another test addresses T2, Chordin-like 2 (Homo sapiens, UniProt Q6WN34).
T2 construct: purchased R&D Systems
T2 sequence (Q6WN34 26-429): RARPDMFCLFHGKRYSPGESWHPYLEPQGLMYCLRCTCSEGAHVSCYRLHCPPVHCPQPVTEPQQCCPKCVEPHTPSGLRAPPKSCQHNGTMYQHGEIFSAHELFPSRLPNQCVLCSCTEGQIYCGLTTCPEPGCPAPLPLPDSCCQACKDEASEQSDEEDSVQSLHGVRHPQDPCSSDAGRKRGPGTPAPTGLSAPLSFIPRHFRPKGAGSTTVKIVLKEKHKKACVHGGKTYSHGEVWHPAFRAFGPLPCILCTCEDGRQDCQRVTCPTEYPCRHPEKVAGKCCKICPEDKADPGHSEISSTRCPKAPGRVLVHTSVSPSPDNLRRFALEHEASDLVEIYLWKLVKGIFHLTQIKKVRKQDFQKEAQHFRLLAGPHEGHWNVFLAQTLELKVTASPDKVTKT
Description: BMP inhibitor activity, hepcidin promoter luciferase: Chordin-like 2. Here is the method: as §1

The next test deals with T3, Coco (Homo sapiens, UniProt Q8N907).
T3 construct: purchased R&D Systems
T3 sequence (Q8N907 23-189): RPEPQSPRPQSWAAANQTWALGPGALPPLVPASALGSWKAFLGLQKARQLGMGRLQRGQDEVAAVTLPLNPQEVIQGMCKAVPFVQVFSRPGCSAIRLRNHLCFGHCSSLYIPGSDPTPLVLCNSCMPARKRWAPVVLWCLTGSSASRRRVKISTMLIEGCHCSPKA
Description: BMP inhibitor activity, hepcidin promoter luciferase: Coco. The protocol: as §1

Marks after values point to notes of the source that are not given here.

T1 sequence (P19883 30-344, species assumed): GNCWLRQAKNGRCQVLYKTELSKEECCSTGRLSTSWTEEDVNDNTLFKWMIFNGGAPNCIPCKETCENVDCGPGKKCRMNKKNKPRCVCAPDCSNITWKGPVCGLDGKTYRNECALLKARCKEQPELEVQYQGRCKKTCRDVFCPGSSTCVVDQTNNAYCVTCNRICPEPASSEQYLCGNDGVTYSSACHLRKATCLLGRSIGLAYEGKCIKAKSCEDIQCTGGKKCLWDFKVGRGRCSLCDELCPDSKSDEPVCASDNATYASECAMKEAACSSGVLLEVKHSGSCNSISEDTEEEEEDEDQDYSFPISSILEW

B1: Human pro-BMP7 Variant F9: wild type pro-domain + variant mature BMP7 F9 (402 aa), SEQ ID NO: 16 (protein)
chain: DFSLDNEVHSSFIHRRLRSQERREMQREILSILGLPHRPRPHLQGKHNSAPMFMLDLYNAMAVEEGGGPGGQGFSYPYKAVFSTQGPPLASLQDSHFLTDADMVMSFVNLVEHDKEFFHPRYHHREFRFDLSKIPEGEAVTAAEFRIYKDYIRERFDNETFRISVYQVLQEHLGRESDLFLLDSRTLWASEEGWLVFDITATSNHWVVNPRHNLGLQLSVETLDGQSINPKLAGLIGRHGPQNKQPFMVAFFKATEVHFRSIRSTGSKQRSQNRSKTPKNQEALRMANVAENSSSDQRQACKKHELYVSFRDLGWQDWIIAPEGYAAGYCEGECAFPLNSYMNATNHALVQTLVHVINPETVPKPCCAPTQLGAISVLYFDDSSNVILKKWRNMVVRACGCH
Regarding B1, the “established cord connected tube area (% PBS control)” value in test [1] was “reduce established cord connected tube area”. Besides, the “Connected Tube Area - EGF (% PBS)” value in test [2] amounted to 13.21 ± 2.59%. Also, the “% inhibition” value with Follistatin (molar excess 0.1X) is recorded as −2.6%; with Follistatin (molar excess 1X) it was −4.3%; with Follistatin (molar excess 10X) it was 11.7%; in the test with Follistatin (molar excess 100X, Hep3B2_HepPro_luc cells, 18 hours), 22.5* %; with Chordin-like 2 (Chordin-like 2, molar excess 0.1X) it was 3.5* %; with Chordin-like 2 (Chordin-like 2, molar excess 1X), 2.4* %. The “% inhibition” value in the test with Chordin-like 2 (Chordin-like 2, molar excess 10X) is on record as 8.8* %; in the test with Chordin-like 2 (Chordin-like 2, molar excess 100X, Hep3B2_HepPro_luc cells, 18 hours) it was 24.9* %; with Coco (molar excess 0.1X) it was −35.4%; with Coco (molar excess 1X), −27.5%; in the test with Coco (molar excess 10X), 7.0%.

One may read the % inhibition as the drop in the measured response relative to a control, in per cent.
